About 2,200 (0.71%) of roughly 310,000 compounds showed an effect of 50% or more. The effect is printed as a negative number. Some of the results follow.
Target: human ether-à-go-go-related gene (hERG) potassium channel (human, UniProt Q12809)
Test: primary screen, population patch clamp on CHO cells stably expressing hERG

Chain of human ether-à-go-go-related gene (hERG) potassium channel (Q12809 whole entry, looked up): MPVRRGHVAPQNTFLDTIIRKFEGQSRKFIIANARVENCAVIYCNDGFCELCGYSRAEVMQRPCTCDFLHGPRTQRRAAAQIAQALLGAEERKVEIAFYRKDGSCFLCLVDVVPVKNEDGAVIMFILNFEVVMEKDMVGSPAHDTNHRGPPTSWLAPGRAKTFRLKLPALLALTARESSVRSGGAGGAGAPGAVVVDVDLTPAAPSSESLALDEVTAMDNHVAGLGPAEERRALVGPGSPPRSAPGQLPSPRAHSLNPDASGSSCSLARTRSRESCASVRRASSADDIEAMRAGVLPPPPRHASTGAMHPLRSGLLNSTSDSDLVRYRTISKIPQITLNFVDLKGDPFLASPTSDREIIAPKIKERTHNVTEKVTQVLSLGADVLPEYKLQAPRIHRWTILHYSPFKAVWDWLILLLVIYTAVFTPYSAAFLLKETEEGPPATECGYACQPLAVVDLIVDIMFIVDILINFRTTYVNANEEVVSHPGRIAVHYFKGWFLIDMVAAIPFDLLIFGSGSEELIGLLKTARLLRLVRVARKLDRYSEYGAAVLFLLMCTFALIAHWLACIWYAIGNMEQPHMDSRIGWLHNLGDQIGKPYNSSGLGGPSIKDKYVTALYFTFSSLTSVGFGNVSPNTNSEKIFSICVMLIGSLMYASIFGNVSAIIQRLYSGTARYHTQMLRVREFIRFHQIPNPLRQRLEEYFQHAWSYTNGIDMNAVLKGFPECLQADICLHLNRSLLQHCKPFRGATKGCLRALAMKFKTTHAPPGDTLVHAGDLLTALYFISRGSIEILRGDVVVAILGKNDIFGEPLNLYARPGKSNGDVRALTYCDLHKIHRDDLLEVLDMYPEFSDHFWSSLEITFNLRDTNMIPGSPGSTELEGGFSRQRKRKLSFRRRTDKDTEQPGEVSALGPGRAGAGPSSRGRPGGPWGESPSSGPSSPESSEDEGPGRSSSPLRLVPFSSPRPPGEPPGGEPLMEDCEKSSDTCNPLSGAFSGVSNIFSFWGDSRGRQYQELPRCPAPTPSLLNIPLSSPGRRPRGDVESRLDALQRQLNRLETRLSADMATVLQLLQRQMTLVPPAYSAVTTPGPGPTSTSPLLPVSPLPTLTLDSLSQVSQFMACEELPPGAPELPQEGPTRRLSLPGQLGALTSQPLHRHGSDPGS

Point of comparison: `Cc1nnc(C)c2c(C)n(-c3cccc4cccnc34)c(C)c12`, “hERG current change (%, negative = inhibition) at 1uM” value 4.64%. Against it:
- COc1ccc(NC(=O)c2cc(-c3ccco3)on2)cc1OC — higher, 14.2%
- O=C(C1CCC1)N1CCN(S(=O)(=O)c2ccc(F)cc2)CC1 — higher, 12.3%
- CCCCCC1CCC(C(=O)O)CC1 (stereo not shown) — higher, 12.9%
- Cc1cccc2cc(CN(CC3CCCO3)C(=S)NCc3ccco3)c(=O)[nH]c12 (stereo not shown) — higher, 15.4%
- Cc1ccc(CSCC(=O)N(C)CC(=O)Nc2ccccc2Cl)cc1 — higher, 15.1%
- Cc1cc(Cl)nc2ccc(Cc3ccc4nc(Cl)cc(C)c4c3)cc12 — lower, 3%
- Cc1cc(C)n(Cc2ccccc2Cl)n1 — higher, 5.89%
- O=C(CNC(=O)c1ccccc1F)OCCCOC(=O)CNC(=O)c1ccccc1F — higher, 10.5%
- O=C1Cc2cc(NS(=O)(=O)c3ccc(Cl)cc3)cc3c2N1CCC3 — lower, 1.28%
- CCC(=O)Nc1nc2ccccc2n1Cc1ccccc1 — lower, 2.8%
- COc1ccc(OC)c(NC(=O)c2ccc(-n3cccn3)nc2)c1 — lower, -16.2%
- CNC(=O)N(O)C1N(NC(=O)Nc2cccc3ccccc23)C(=S)SC1(C)C (stereo not shown) — lower, 1.3%
- COc1ccc(N=Cc2sc(O)c3ccccc23)cc1 — higher, 14.7%
- Cc1ccc(S(=O)(=O)Nc2cccc(Cl)c2)cc1NC(=O)c1cccnc1 — higher, 5.21%
- C1COCCNCCOCCOCCOCCN1 — higher, 6.07%
- COc1ccc(C(CNC(=O)c2cc(S(=O)(=O)N3CCCC3)ccc2Cl)N2CCCC2)cc1 (stereo not shown) — lower, -7.15%
- Cc1cccc(N2C(=O)NC(=O)/C(=C/c3ccc(N4CCOCC4)cc3)C2=O)c1 — higher, 13.6%
- CC(C)Cn1cnc2c1c(=O)n(CC(O)c1ccccc1)c(=O)n2CC(C)C (stereo not shown) — lower, -0.774%
- Cc1cccc(C(=O)N(CCc2ccccc2)Cc2ccccc2)c1[N+](=O)[O-] — higher, 6.71%
- S=C1NCCOCCOCCOCCNC(=S)NCCOCCOCCOCCN1 — higher, 15.5%
- COc1ccccc1C(=O)NCCC(=O)N1CCN(C(C)=O)CC1 — higher, 15.9%
- O=C(C(Cc1ccccc1)n1cccc1)N1CCN(C2CCCCC2)CC1 (stereo not shown) — lower, -24.8%
- O=C(Nc1ccc(Cl)c(C(F)(F)F)c1)c1ccco1 — lower, 1.42%
- CNC1=C(N(C(C)=O)c2ccc(Br)cc2)C(=O)c2ccccc2C1=O — higher, 4.67%
- COc1ccc(OC)c(NC(=O)C2CC(=O)N(c3ccc(Br)cc3)C2)c1 (stereo not shown) — lower, -1.11%
- O=C(O)CSCC(=O)NCc1csc2ccc(Cl)cc12 — higher, 6.72%
- COc1ccccc1C(=O)NCCC(=O)N(C)Cc1cccnc1 — higher, 6.2%
- C=CCc1cccc(CNc2c(C)cc(C)cc2C)c1O — higher, 12.3%
- CCCCC(=O)Nc1ccc2c(c1)nc(CN1CCN(C(=O)OCC)CC1)n2C — higher, 13.1%
- COc1ccccc1N1CCN(C(=O)c2ccccc2NC(=O)C2CCCCC2C(=O)O)CC1 (stereo not shown) — lower, 1.57%
- Cc1cc(=O)oc(C)c1C(=O)OCC(=O)c1ccc2ccccc2c1 — higher, 14.7%
- O=c1[nH]c(CSc2ncc(C(F)(F)F)cc2Cl)nc2cc(C(F)(F)F)ccc12 — lower, 3.42%
- CCOc1ccc(/C(C)=N\NC(=O)Cc2ccccc2)cc1 — lower, 0.939%
- COC(=O)C1=C(C)NC(C)=C(C(=O)OC)C1/C=C/c1ccccc1 — lower, -8.65%
- CC(C)Cc1nc2oc3c(NCc4cccnc4)ncnc3c2c2c1CCC2 — lower, -12.8%
- CCn1ccc(C(=O)NC2=NCCS2)n1 — lower, 0.803%
- CCCCc1cc(=O)oc2c(CN3CCCC3)c(O)ccc12 — lower, -10.5%
- O=C(NCc1ccccc1Cl)C1CCC(=O)N(C2CC2)C1 (stereo not shown) — higher, 17.1%
- CN(C(=O)c1cccs1)C1(C)CCS(=O)(=O)C1 (stereo not shown) — higher, 13.3%
- CCCCNC(=O)COC(=O)c1cc(C)nc2ccccc12 — lower, 2.17%
- CCCCCNC(=O)c1ccc2c(=O)n(CC3CCCO3)c(=O)[nH]c2c1 (stereo not shown) — higher, 16%
- COc1ccc(C2CC(c3ccc4ccccc4c3)=NN2C(=O)CSc2ncccn2)cc1 (stereo not shown) — higher, 12.6%
- CCOC(=O)N1CCC(N2C(=O)c3ccccc3C2Nc2ccc(Cl)cn2)CC1 (stereo not shown) — lower, -1.08%
- CCc1ccc(OCC(O)Cn2c(N3CCCCC3)nc3c2c(=O)[nH]c(=O)n3C)cc1 (stereo not shown) — lower, 2.64%
- O=C(C1CCCO1)N1CCN(C(=S)Nc2ccccc2Cl)CC1 (stereo not shown) — lower, 2.65%
- NC(=O)C1CCN(S(=O)(=O)c2ccccc2[N+](=O)[O-])CC1 — higher, 12.4%
- CCCc1cc(=O)[nH]c2nnc(SCC(=O)Nc3ccc(NC(C)=O)cc3)n12 — higher, 10%
- COc1ccc(C)cc1N(C(=O)CNC(=O)c1ccco1)C(C(=O)NCC1CCCO1)c1ccccc1 (stereo not shown) — higher, 14.8%
- O=C(NCc1cccnc1)c1sc2cc(Cl)ccc2c1Cl — lower, -12.7%
- Cc1noc(C)c1COC(=O)c1ccc2c(c1)S(=O)(=O)c1ccccc1C2=O — higher, 9.57%
- CCC1=Nc2cc(C(=O)NCCCN3CCOCC3)ccc2Sc2ccc(Br)cc21 — higher, 15.9%
- Cc1ccc(S(=O)(=O)N(C)c2ccc(NS(C)(=O)=O)cc2)cc1 — lower, -21%
- CC1(C)Cc2nc3oc4c(=O)n(CC(=O)Nc5cccc(Cl)c5)cnc4c3cc2CO1 — higher, 14.9%
- COc1cccc(C2CC(c3c(Cl)cccc3Cl)n3nc(N)nc3N2)c1 (stereo not shown) — higher, 13.1%
- Cn1[nH]c(C(F)(F)F)c(C=NCc2ccc(Cl)cc2)c1=O — higher, 7.93%
- Cc1ccccc1/C=c1\s/c(=C\C(=O)C(C)(C)C)[nH]c1=O — higher, 9.43%
- C/C(=N/N=C1/NC(=O)CC(C(=O)O)S1)c1ccccc1 (stereo not shown) — higher, 10.8%
- CN(CCO)C1=NS(=O)(=O)c2cc([N+](=O)[O-])ccc21 — higher, 13%
- CC(C)CC(=O)Nc1cccc2c1C(=O)N(c1ccccc1)C2=O — higher, 6.54%
- Oc1c(C(c2cccs2)N2CCN(c3cccc(Cl)c3)CC2)sc2ncnn12 (stereo not shown) — higher, 15.2%
- O=C(CSc1ncccn1)N1CCCc2ccccc21 — higher, 10.8%
- COc1ccc(C(=O)NNC2=NS(=O)(=O)c3ccccc32)cc1OC — higher, 15.5%
- Cc1nnc(SCC(=O)Nc2ccccc2C(=O)NC2CC2)s1 — higher, 7.26%
- O=c1cc(CSc2n[nH]c(-c3ccncc3)n2)nc2sccn12 — higher, 11.8%
- CCN(CC)S(=O)(=O)N1CCC(C(=O)N2CCC3(CC2)OCCO3)CC1 — lower, 4.47%
- O=C(N=C1SC2CS(=O)(=O)CC2N1c1ccc(Cl)c(Cl)c1)C1CCCO1 (stereo not shown) — higher, 19.6%
- COc1ccc(C(=O)Sc2ccc(Cl)cc2)cc1OC — higher, 4.71%
- O=C(O)c1cccc2c(-c3ccccc3)c(-c3ccccc3)[nH]c12 — higher, 13.1%
- COc1cccc(/C=N\NC(=O)C2C(=O)NCC2c2ccccc2)c1O (stereo not shown) — lower, -3.19%
- O=C(C1CCN(S(=O)(=O)c2ccccc2)CC1)N1CCN(c2ccccc2F)CC1 — lower, 0.218%
- O=C(Nc1ccccc1C(=O)O)c1cccc(NC(=O)c2ccccc2Cl)c1 — higher, 19.2%
- Cc1c(C(=O)OCC(=O)N(C)Cc2ccc(Cl)cc2)oc2ccccc12 — lower, 1.32%
- CCOCCn1c(=O)c2c(nc3n2CC(C)CN3CCc2ccccc2)n(C)c1=O (stereo not shown) — lower, -58.9%
- O=C(OCc1nnc(-c2ccccc2)o1)c1ccc2c(c1)C(=O)N(CCc1ccccc1)C2=O — higher, 12.3%
- CC1(C)CC(=O)/C(=C(\O)CCCN2C(=O)c3ccccc3C2=O)C(=NCCO)C1 — higher, 8.29%
- C=CCC(c1ccccc1F)N(CCN1CCOCC1)C(=O)Nc1cccc(Cl)c1 (stereo not shown) — higher, 10.8%
- Cc1ccc(Cl)c(NC(=O)CN(C)CC(=O)Nc2ccc(F)c(F)c2F)c1Cl — lower, 1.28%
- CCCCn1c(O)c(C(C)=NC(Cc2c[nH]c3ccccc23)C(=O)OC)c(=O)[nH]c1=O (stereo not shown) — lower, -8.88%
- COC(=O)c1c(NC(=O)CN2C(=O)NC(CCc3ccccc3)C2=O)sc2c1CCCCC2 (stereo not shown) — higher, 7.47%
- COc1ccccc1NC(=O)Cn1nnc(-c2ccccc2NC(=O)c2cc3ccccc3oc2=O)n1 — higher, 11.2%
- COCCN1C=C(C(=O)OC)C(c2ccccc2Cl)C(C(=O)OC)=C1 — higher, 17.3%
- ON1C(c2ccccc2)CC2(O)c3nonc3CCC12 (stereo not shown) — lower, -0.372%
- N/C(=N\OC(=O)CCC1CCCC1)c1ccc(Br)cc1 — lower, -6.36%
- O=C(Nc1cccc([N+](=O)[O-])c1)N1CCN(c2ccccc2)CC1 — lower, -12.7%
- Cn1c(=O)cc(SCC(=O)N2CCC3(CC2)OCCO3)c2ccc(Cl)cc21 — lower, -14.4%
- COc1ccc(NC(=O)CSc2ncnc3[nH]ncc23)cc1 — higher, 10.3%
- CCN(Cc1ccccc1)C(=O)CCc1nc(CN2CCN(C(=O)c3ccc([N+](=O)[O-])cc3)CC2)no1 — lower, -10.6%
